The supplement of paper PMC3334620
Whole data set: some 33,000 sequences, median “E-score (-0.5 to 0.5)” near -0.016, cut for the highest 2% near 0.32. The list shows a part of the results.

molecular target: T1, Stp1 (UniProt B3LFK1); experiment: PBM E-score (8-mer binding enrichment) (E-score (-0.5 to 0.5)); higher = stronger / more preferred TF binding; most listed sequences are background and not binding sites; conditions: protein concentration: 200 nM; construct: GST-full length
T1 sequence: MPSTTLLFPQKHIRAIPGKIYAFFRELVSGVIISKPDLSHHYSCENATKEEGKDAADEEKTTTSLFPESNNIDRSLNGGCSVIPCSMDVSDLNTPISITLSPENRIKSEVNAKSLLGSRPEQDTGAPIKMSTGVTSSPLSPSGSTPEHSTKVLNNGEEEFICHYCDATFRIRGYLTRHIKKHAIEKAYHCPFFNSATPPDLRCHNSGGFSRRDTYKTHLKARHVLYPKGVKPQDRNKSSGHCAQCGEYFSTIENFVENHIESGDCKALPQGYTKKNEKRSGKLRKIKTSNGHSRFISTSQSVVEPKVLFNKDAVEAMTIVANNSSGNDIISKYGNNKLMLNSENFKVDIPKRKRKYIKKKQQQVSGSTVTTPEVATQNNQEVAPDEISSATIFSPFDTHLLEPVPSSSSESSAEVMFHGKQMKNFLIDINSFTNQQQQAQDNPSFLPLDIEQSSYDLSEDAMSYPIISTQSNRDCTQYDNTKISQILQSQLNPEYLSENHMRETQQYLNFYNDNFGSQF
Outline: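 Each ungapped eight-base word and its reverse complement, pooled, received an E-score from the Universal PBM Analysis Suite. Underlying scans, normalised with masliner, recorded fluorescent anti-GST bound to GST-tagged yeast transcription factors. These were applied at about 100-200 nM to universal all-10-mer Agilent arrays double-stranded by primer extension.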

Sequence | PBM E-score
GGGATTAC | -0.352
CCTCTACC | -0.24
ACCTTTCT | -0.0776
ATAAATGC | 0.262
CTTGTGCC | 0.151
ATAATTAT | 0.272
ATGCTTTG | 0.0447
CGTAAAAA | 0.11
AGACACAA | 0.154
AGGACCCT | -0.253
GTGAATAA | 0.109
ATTGGGAC | -0.212
ACACTGCC | 0.25
CTCACGGA | 0.0462
ATTGTATC | 0.0957
CCCCAGGC | -0.428
ATCAACCG | -0.0921
ACAGAGGG | -0.176
TGTCTGAA | 0.119
GATACCAC | 0.128
ACGAGCTC | -0.0241
GGTCGACA | -0.214
CATAGCAG | -0.297
AGGTCTAG | -0.241
AGATATAG | 0.111

Sequence | PBM E-score
ACGCGAGT | -0.0922
AAGCAAAC | 0.102
AGTTTTCA | -0.0566
AAGCTTCT | -0.197
AGGATGGG | -0.177
CACAAGAA | 0.274
ATAGTGTA | 0.0651
GGGATACC | -0.258
CAATGAAA | 0.0497
CGTAGGGA | -0.051
AACTCAGC | -0.106
CCTCCCCA | -0.243
AACATTGC | 0.0979
CGTTGGAA | 0.0876
AGTAACCG | 0.14
AACGTACC | -0.0951
AGCAAGGG | -0.0539
GAGCCGGA | 0.0514
CTTTGTAA | 0.155
AAAGAACG | 0.106
ACGGACAG | 0.00642
ACCATTCC | 0.00123
GCGGATGA | 0.0593
ACCAATCT | 0.0622
CTGATGAC | -0.0444

Sequence | PBM E-score
AGGCGTTG | 0.286
ACACCTCC | -0.145
GTGGATCA | -0.0762
ATACAATA | 0.168
ACCCTCGC | -0.154
CATGAGAG | 0.0402
AAAAAACG | 0.162
CGCTAATC | -0.201
CCGTTAGC | 0.0331
CAGATTCC | -0.0521
GGAATTTA | 0.196
AACCTCCC | -0.156
CGGTGATA | -0.0197
CTATCGCC | 0.0882
AAGCAACT | 0.0616
AGTAGTTG | 0.0992
CTGACCTC | -0.247
TACCGCGA | -0.00309
GTGAAAGA | 0.102
AAATCGTG | 0.133
GTAGGGCA | 0.132
ATCCCTTG | -0.272
GAGATACC | -0.0407
CAAGGAAG | -0.014
GATGTCCA | 0.106

Sequence | PBM E-score
TGAGTGAA | -0.131
CTTGTATC | -0.0147
GCCGGACC | -0.0277
AGGCAGCG | 0.0789
ATCAGAAG | 0.116
CACCTCAC | -0.122
CTTTTACA | 0.205
ACCGTTGG | -0.28
CATTAGTC | 0.0203
ACATGAGG | -0.058
CGAAAGAC | 0.0303
GGTGTAAC | 0.0929
ACGGCGCA | 0.482
ATCCCACA | -0.223
ACGGGGTC | -0.00529
ATTCAGCC | 0.0277
ATGCACGG | 0.174
CCCACGGC | 0.417
GAAAGAGC | -0.145
CCCAAACG | 0.0228
GAATATGA | -0.0387
AGGGTCTA | -0.217
GCAGGCCA | -0.154
AACCTGAG | -0.2
CTCAACGC | -0.00714

Sequence | PBM E-score
CGAGGTAG | -0.373
AAATGACG | 0.142
CATCTTAA | 0.122
GCACCTCA | 0.116
CGCTTCAG | -0.0874
CGCACCCA | -0.105
CAGCACGC | 0.145
ATGATGAG | 0.0238
ACAACGGC | 0.308
GTCTACTA | -0.0766
AGTGCACC | -0.111
ACACACAG | 0.0943
CATGCGGA | 0.156
CCAGGATA | -0.00304
ACGTTATA | 0.0885
AAGGGAGG | -0.206
CGTCGACG | -0.063
GTAGTTGA | -0.0461
AAGGCGGA | -0.099
ACAACCCA | 0.0919
AGTGCATC | 0.00327
TGAATACA | 0.14
CATCAAGA | -0.0275
AACGTAAC | 0.0571
AAAAGTCT | -0.166

Sequence | PBM E-score
CAAAATAG | -0.17
AGCGACAG | -0.153
AGCATGGA | -0.264
CCGAGTAC | -0.0745
CCTATAAC | -0.262
GTACAATA | 0.255
TACGGCGA | 0.473
AGAGCATC | -0.135
GGCGGCGA | 0.276
AGTCAACA | -0.0168
CAGGGCAA | 0.0617
ATATATCG | 0.261
AAGTCGTA | -0.0387
CAGACCTC | -0.0325
ACTCCCTG | -0.182
GGGGGCAA | -0.197
ACAACAAT | 0.0375
ATGCAGTC | -0.199
GATCTCCC | -0.204
CTAACAGA | 0.0905
GGCGCTCA | 0.281
CACCCGAG | -0.189
ACTTGGCT | -0.249
AGCTATTC | -0.193
GGTGAAAA | 0.201

Sequence | PBM E-score
CGCAGAGA | -0.0411
AATAAATA | 0.35
AGCGACTC | -0.263
GTGGTGTA | 0.0559
GCTAGTCA | -0.287
AGGGCACC | 0.0197
CCCAAGAG | 0.00717
AGAAGCCG | 0.221
AGCTCCTG | -0.105
AATAAAGG | 0.00104
TGAGTTAA | 0.0465
ACGGGACA | -0.072
CAGATTTA | 0.198
AAGGCAAC | 0.274
CTATTCAG | -0.0709
AAGGTCGC | -0.106
ACAGATCT | -0.0993
ACCGCCTC | -0.0359
AAAGATAC | 0.0737
AGAGGGGC | -0.145
AATCACCC | -0.109
GCTGTAAC | -0.11
